The text below walks through data of paper PMC9619224.

The chains behind the UniProt entries cited, without tags or fusion partners.
UniProt Q6X632: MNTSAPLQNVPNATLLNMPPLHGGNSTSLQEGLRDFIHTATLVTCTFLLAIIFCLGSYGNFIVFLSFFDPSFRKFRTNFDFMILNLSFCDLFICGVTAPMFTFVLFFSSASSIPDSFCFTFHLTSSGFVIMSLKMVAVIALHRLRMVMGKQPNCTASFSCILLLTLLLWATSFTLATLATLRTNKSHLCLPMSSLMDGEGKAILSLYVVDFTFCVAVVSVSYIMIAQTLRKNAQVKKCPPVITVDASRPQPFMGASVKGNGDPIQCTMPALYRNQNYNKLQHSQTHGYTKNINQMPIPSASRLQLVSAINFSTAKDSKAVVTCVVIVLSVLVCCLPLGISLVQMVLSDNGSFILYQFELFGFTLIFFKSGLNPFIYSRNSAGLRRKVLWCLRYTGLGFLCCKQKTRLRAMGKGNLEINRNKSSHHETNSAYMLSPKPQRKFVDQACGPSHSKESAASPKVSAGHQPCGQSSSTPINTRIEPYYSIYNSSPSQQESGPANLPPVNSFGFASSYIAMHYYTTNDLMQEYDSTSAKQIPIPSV
UniProt P70310: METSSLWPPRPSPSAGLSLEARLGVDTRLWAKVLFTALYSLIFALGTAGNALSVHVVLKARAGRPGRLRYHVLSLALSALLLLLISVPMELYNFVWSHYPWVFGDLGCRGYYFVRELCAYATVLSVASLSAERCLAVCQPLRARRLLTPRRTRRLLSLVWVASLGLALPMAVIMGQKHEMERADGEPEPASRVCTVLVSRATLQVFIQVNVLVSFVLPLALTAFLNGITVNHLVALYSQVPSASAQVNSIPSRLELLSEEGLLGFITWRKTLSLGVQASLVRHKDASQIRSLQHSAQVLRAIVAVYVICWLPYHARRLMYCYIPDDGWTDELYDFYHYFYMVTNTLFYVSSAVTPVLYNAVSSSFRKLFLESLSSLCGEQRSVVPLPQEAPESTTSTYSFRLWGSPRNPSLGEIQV

No constants are given. Whether binding was seen depends on the method and setting. Binding seen in cells or lysates may run through a third protein. Some binding calls cover weakened binding; strength is not graded here.

Common to all, as to test: co-IP; HEK293T cells transfected with 3xHA-GPCR and 2xFlag-MRAP1 or MRAP2; GPCR immunoprecipitated with rabbit anti-HA, Protein A/G agarose, overnight at 4°C; MRAP detected by mouse anti-Flag blot
For test [1], the target named is T1, G protein‐coupled receptor 150 (mouse) (UniProt Q8BL07).
T1 sequence: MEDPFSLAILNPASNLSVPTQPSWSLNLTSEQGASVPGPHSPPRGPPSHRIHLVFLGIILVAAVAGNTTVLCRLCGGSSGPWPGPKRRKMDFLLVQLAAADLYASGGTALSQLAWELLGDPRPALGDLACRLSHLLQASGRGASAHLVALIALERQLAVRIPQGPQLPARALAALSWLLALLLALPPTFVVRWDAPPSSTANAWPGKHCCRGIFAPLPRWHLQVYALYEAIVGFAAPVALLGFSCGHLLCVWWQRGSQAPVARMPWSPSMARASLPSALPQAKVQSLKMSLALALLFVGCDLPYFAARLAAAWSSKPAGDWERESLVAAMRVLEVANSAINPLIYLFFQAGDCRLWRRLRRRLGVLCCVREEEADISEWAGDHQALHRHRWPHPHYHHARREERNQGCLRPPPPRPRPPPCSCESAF

Test [2] addresses G protein‐coupled receptor 75 (mouse) (UniProt Q6X632).
Test [3] deals with T2, Neuropeptide Y receptor Y5 (mouse) (UniProt O70342).
T2 sequence: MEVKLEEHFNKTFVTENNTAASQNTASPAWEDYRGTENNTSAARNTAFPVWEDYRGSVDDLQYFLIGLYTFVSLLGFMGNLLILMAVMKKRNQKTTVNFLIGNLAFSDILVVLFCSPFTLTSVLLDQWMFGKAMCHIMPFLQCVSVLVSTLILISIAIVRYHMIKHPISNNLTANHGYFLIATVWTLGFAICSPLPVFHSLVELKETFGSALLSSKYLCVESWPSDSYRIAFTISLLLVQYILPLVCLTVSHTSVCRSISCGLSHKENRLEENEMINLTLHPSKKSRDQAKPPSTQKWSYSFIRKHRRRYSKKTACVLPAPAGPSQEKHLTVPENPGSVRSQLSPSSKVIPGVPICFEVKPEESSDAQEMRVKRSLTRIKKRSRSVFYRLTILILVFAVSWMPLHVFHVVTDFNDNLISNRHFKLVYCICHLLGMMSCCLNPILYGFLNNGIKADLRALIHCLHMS

Test [4] deals with T3, Neuropeptides B/W receptor 1 (mouse) (UniProt P49681).
T3 sequence: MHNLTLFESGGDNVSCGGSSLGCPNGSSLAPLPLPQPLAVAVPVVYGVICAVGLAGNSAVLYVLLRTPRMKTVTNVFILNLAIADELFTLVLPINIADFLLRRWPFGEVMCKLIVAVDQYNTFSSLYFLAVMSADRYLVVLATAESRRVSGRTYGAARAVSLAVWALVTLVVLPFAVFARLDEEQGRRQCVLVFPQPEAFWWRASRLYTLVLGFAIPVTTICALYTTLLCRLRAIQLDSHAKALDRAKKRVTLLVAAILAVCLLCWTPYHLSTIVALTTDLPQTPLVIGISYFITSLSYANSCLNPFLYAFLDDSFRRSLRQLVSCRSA

For test [5], the target named is Neurotensin receptor 2 (mouse) (UniProt P70310).

B1: melanocortin receptor accessory protein MRAP1 (protein, UniProt Q9D159 1-127)
chain: MANGTDASVPLTSYEYYLDYIDLIPVDEKKLKANKHSIVIALWLSLATFVVLLFLILLYMSWSGSPQMRHSPQPQPICSWTHSFNLPLCLRRASLQTTEEPGRRAGTDQWLTQQSPSASAPGPLALP
Turning to B1, the binding result in test [1] is “no binding”; in test [2] it was “binds”; in test [3] it was “no binding”; in test [4] it was “binds”; in test [5], “binds”.

B2: melanocortin receptor accessory protein MRAP2 (protein, UniProt D3Z1Q2 1-207)
chain: MEMSAQRLASNRTSPQSPSNSDYTWEYEYYEIGPVSFEGLKAHKYSIVIGFWVGLAVFVIFMFFVLTLLTKTGAPHQDNAESSERRFRMNSFVSDFGKPLESDKVFSRQGNEESRSLFHCYINEVEHLDRVKVCHQTTAIDSDVHLQEASRSSGRPEEELARFMKFDIPNFVNTEQSSFGEDDLLISEAPVLLENKPVSQTSRIDLD
Regarding B2, the binding entry in test [1], in test [2], in test [3], in test [4] and in test [5] was “binds” throughout.
